# Reference: the supplement of paper PMC8728848
# The list shows a part of the results.
# Experiments:
# Experiment in all cases: glycan array binding signal (z-score within array); higher = stronger binding
# Settings in all cases: glycan notation: IUPAC condensed, linker removed
# [1] = target: Gal(b1-4)GlcNAc(b1-2)[Gal(b1-4)GlcNAc(b1-4)]Man(a1-3)[Gal(b1-4)GlcNAc(b1-2)[Gal(b1-4)GlcNAc(b1-6)]Man(a1-6)]Man(b1-4)GlcNAc(b1-4)GlcNAc
# Method in brief: (§1)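 Glycan array data came from 3228 arrays in the Consortium for Functional Glycomics database, and only arrays with an available protein sequence were kept. Glycan names were put into IUPAC-condensed notation, and columns mapping to the same glycan were averaged. The binding signal is a within-array Z-score, averaged across arrays of one protein sequence run at different concentrations or buffers and across linkers. A negative Z-score can be read as non-binding.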
# [2] = target: Gal(b1-4)GlcNAc(b1-2)[Gal(b1-4)GlcNAc(b1-4)]Man(a1-3)[GlcNAc(b1-4)][Gal(b1-4)GlcNAc(b1-2)Man(a1-6)]Man(b1-4)GlcNAc(b1-4)GlcNAc
# Method in brief: as §1
# [3] = target: Gal(b1-4)GlcNAc(b1-2)[Gal(b1-4)GlcNAc(b1-6)]Man(a1-6)[GlcNAc(b1-4)][Gal(b1-4)GlcNAc(b1-2)Man(a1-3)]Man(b1-4)GlcNAc(b1-4)GlcNAc
# Method in brief: as §1
# [4] = target: Gal(b1-4)GlcNAc(b1-3)Gal(b1-3)GlcNAc
# Method in brief: as §1
# [5] = target: Gal(b1-4)GlcNAc(b1-3)Gal(b1-4)Glc
# Method in brief: as §1
# [6] = target: Gal(b1-4)GlcNAc(b1-3)Gal(b1-4)GlcNAc
# Method in brief: as §1
# [7] = target: Gal(b1-4)GlcNAc(b1-3)Gal(b1-4)GlcNAc(b1-3)Gal(b1-4)GlcNAc
# Method in brief: as §1
# [8] = target: Gal(b1-4)GlcNAc(b1-3)Gal(b1-4)[Fuc(a1-3)GlcNAc(b1-6)]Gal(b1-4)Glc
# Method in brief: as §1
# [9] = target: Gal(b1-4)GlcNAc(b1-3)Gal(b1-4)[Fuc(a1-3)]GlcNAc(b1-3)Gal(b1-4)[Fuc(a1-3)]GlcNAc
# Method in brief: as §1
# [10] = target: Gal(b1-4)GlcNAc(b1-3)GalNAc
# Method in brief: as §1
# [11] = target: Gal(b1-4)GlcNAc(b1-3)[Gal(b1-4)GlcNAc(b1-6)]Gal(b1-4)GlcNAc
# Method in brief: as §1
# [12] = target: Gal(b1-4)GlcNAc(b1-3)[Gal(b1-4)GlcNAc(b1-6)]GalNAc
# Method in brief: as §1
# [13] = target: Gal(b1-4)GlcNAc(b1-3)[GlcNAc(b1-6)]Gal(b1-4)GlcNAc
# Method in brief: as §1
# [14] = target: Gal(b1-4)GlcNAc(b1-6)Gal(b1-4)GlcNAc
# Method in brief: as §1
# [15] = target: Gal(b1-4)GlcNAc(b1-6)GalNAc
# Method in brief: as §1
# [16] = target: Gal(b1-4)GlcNAc(b1-6)[Gal(b1-3)]GalNAc
# Method in brief: as §1
# [17] = target: Gal(b1-6)Gal
# Method in brief: as §1
# [18] = target: Gal3S(b1-3)GalNAc
# Method in brief: as §1
# [19] = target: Gal3S(b1-3)GlcNAc
# Method in brief: as §1
# [20] = target: Gal3S(b1-3)[Fuc(a1-4)]GlcNAc
# Method in brief: as §1
# [21] = target: Gal3S(b1-4)Glc
# Method in brief: as §1
# [22] = target: Gal3S(b1-4)Glc6S
# Method in brief: as §1
# [23] = target: Gal3S(b1-4)GlcNAc
# Method in brief: as §1
# [24] = target: Gal3S(b1-4)GlcNAc6S
# Method in brief: as §1
# [25] = target: Gal3S(b1-4)[Fuc(a1-3)]Glc
# Method in brief: as §1
# [26] = target: Gal3S(b1-4)[Fuc(a1-3)]Glc6S
# Method in brief: as §1
# [27] = target: Gal3S4S(b1-4)GlcNAc
# Method in brief: as §1
# [28] = target: Gal3S6S(b1-4)GlcNAc
# Method in brief: as §1
# [29] = target: Gal3S6S(b1-4)GlcNAc6S
# Method in brief: as §1
# [30] = target: Gal4S(b1-4)GlcNAc
# Method in brief: as §1
# [31] = target: Gal4S6S(b1-4)GlcNAc
# Method in brief: as §1
# [32] = target: Gal6S(b1-3)GlcNAc
# Method in brief: as §1
# [33] = target: Gal6S(b1-3)GlcNAc6S
# Method in brief: as §1
# [34] = target: Gal6S(b1-4)Glc
# Method in brief: as §1
# [35] = target: Gal6S(b1-4)Glc6S
# Method in brief: as §1
# [36] = target: Gal6S(b1-4)GlcNAc
# Method in brief: as §1
# [37] = target: Gal6S(b1-4)GlcNAc6S
# Method in brief: as §1
# [38] = target: GalNAc(a1-3)Gal
# Method in brief: as §1
# [39] = target: GalNAc(a1-3)GalNAc
# Method in brief: as §1
# [40] = target: GalNAc(a1-3)GalNAc(a1-3)Gal(a1-4)Gal(b1-4)GlcNAc
# Method in brief: as §1
# [41] = target: GalNAc(a1-3)GalNAc(b1-3)Gal(a1-4)Gal(b1-4)Glc
# Method in brief: as §1
# [42] = target: GalNAc(b1-3)Gal
# Method in brief: as §1
# [43] = target: GalNAc(b1-3)Gal(a1-4)Gal(b1-4)GlcNAc
# Method in brief: as §1
# [44] = target: GalNAc(b1-3)Gal(a1-4)Gal(b1-4)GlcNAc(b1-3)Gal(b1-4)Glc
# Method in brief: as §1
# [45] = target: GalNAc(b1-3)Gal(a1-6)Gal(b1-4)Glc
# Method in brief: as §1
binder,measurement,setting,value
"ASAL (Allium sativum), P83886 (protein) MGRTTSSPKAMMRIATVAAILTILASTCMARNVLTNGEGLYAGQSLDVEQYKFIMQDDCNLVLYEYSTPIWASNTGVTGKNGCRAVMQRDGNFVVYDVNGRPVWASNSVRGNGNYILVLQKDRNVVIYGSDIWSTGTYRRSVGGAVVMAMNGTVDGGSVIGPVVVNQNVTAAIRKVGTGAA",glycan array binding signal (z-score),[1],3.4
same,glycan array binding signal (z-score),[2],-0.138
same,glycan array binding signal (z-score),[3],-0.211
same,glycan array binding signal (z-score),[4],-0.285
same,glycan array binding signal (z-score),[5],-0.267
same,glycan array binding signal (z-score),[6],-0.23
same,glycan array binding signal (z-score),[7],-0.287
same,glycan array binding signal (z-score),[8],-0.262
same,glycan array binding signal (z-score),[9],-0.266
same,glycan array binding signal (z-score),[10],-0.23
same,glycan array binding signal (z-score),[11],-0.305
same,glycan array binding signal (z-score),[12],-0.255
same,glycan array binding signal (z-score),[13],-0.281
same,glycan array binding signal (z-score),[14],-0.283
same,glycan array binding signal (z-score),[15],-0.22
same,glycan array binding signal (z-score),[16],-0.256
same,glycan array binding signal (z-score),[17],-0.255
same,glycan array binding signal (z-score),[18],-0.259
same,glycan array binding signal (z-score),[19],-0.313
same,glycan array binding signal (z-score),[20],-0.154
same,glycan array binding signal (z-score),[21],-0.237
same,glycan array binding signal (z-score),[22],-0.227
same,glycan array binding signal (z-score),[23],-0.248
same,glycan array binding signal (z-score),[24],-0.212
same,glycan array binding signal (z-score),[25],-0.271
same,glycan array binding signal (z-score),[26],-0.227
same,glycan array binding signal (z-score),[27],-0.273
same,glycan array binding signal (z-score),[28],-0.275
same,glycan array binding signal (z-score),[29],-0.238
same,glycan array binding signal (z-score),[30],-0.287
same,glycan array binding signal (z-score),[31],-0.273
same,glycan array binding signal (z-score),[32],-0.241
same,glycan array binding signal (z-score),[33],-0.271
same,glycan array binding signal (z-score),[34],-0.287
same,glycan array binding signal (z-score),[35],-0.24
same,glycan array binding signal (z-score),[36],-0.193
same,glycan array binding signal (z-score),[37],-0.163
same,glycan array binding signal (z-score),[38],-0.198
same,glycan array binding signal (z-score),[39],-0.142
same,glycan array binding signal (z-score),[40],-0.316
same,glycan array binding signal (z-score),[41],-0.272
same,glycan array binding signal (z-score),[42],-0.236
same,glycan array binding signal (z-score),[43],-0.274
same,glycan array binding signal (z-score),[44],-0.175
same,glycan array binding signal (z-score),[45],-0.203
